In PubChem BioAssay AID1159580 (chemical genetic matrix, 2015):
Hit rate of the full screen: of about 5,500 compounds, about 2,000 (36%) were called active. The shares of active, inactive and inconclusive entries below differ from those in the screen. Rule as the data show it: active = normalized growth mostly below about 0.91 (no sharp cut-off); inconclusive = no clear call, values can overlap the other calls; inactive = mostly above about 0.92. Some compounds were tested as several samples or in several runs, with calls that do not always agree. Where a SMILES comes first, the peptide text is derived from it. [ ]: non-standard residue; d: D form. Orn = NCCC[CH](N)C(=O)O

Assay: chemical genetic growth profiling, strain panel (AID 1159580);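 also: tested at 20 µM; growth read once vehicle control cultures reached saturation at 30 °C; 1 = growth at the plate median or of vehicle wells; lower values mean less growth of the strain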
Conditions: S. cerevisiae deletion strains, growth OD
[1] = locus YJL166W, strain qcr8, hits give low values
[2] = locus YGL086W, strain mad1, hits give low values
[3] = locus YPL051W, strain arl3, hits give low values
[4] = locus YDR150W, strain NUM1, hits give low values
[5] = locus YDR318W, strain mcm21, hits give low values
[6] = locus YHR094C, strain hxt1, hits give low values
[7] = locus YMR263W, strain SAP30, hits give low values
[8] = locus YLR113W, strain HOG1, hits give low values
[9] = locus YER015W, strain faa2, hits give low values
[10] = locus YDR001C, strain nth1, hits give low values
[11] = locus YOR144C, strain elg1, hits give low values
[12] = locus YER002W, strain NOP16, hits give low values
[13] = locus YHR030C, strain SLT2, hits give low values
[14] = locus YPL256C, strain CLN2, hits give low values
[15] = locus YCL011C, strain gbp2, hits give low values
[16] = locus YKL009W, strain mrt4, hits give low values

Measured: normalized growth

COc1ccc2c(c1)CCC1C2CCC2(C)C1C[C@@H](O)C2O (stereo not given in full)
inconclusive: [1] 0.888 [sensitive]

CC(C)CC1NC(=O)C(CCCN)NC(=O)C(C(C)C)NC(=O)C2CCCN2C(=O)C(Cc2ccccc2)NC(=O)C(CC(C)C)NC(=O)C(CCCN)NC(=O)C(C(C)C)NC(=O)C2CCCN2C(=O)C(Cc2ccccc2)NC1=O (stereo not given) (cyclo(FPV[Orn]LFPV[Orn]L); configuration not given here)
inconclusive: [2] 1.12 [resistant] | locus YHR200W, strain rpn10, hits give low values 1.1 [resistant]

CCCCOC(=O)c1ccccc1C(=O)OCCCC
inconclusive: [3] 0.906 [sensitive]

CCOC(=O)c1c(N=Cc2cc(Br)c(Br)cc2O)sc2c1CCCC2
inconclusive: [4] 0.55 [sensitive]

CN[C@@H]1C(O)[C@@H](O[C@@H]2[C@@H](O)[C@H](O[C@H]3OC(CN)=CC[C@H]3N)[C@@H](N)C[C@H]2N)OC[C@]1(C)O (stereo not given in full)
inconclusive: [5] 0.874 [sensitive] | [6] 0.547 [sensitive] | locus YML032C, strain rad52, hits give low values 0.608 [sensitive] | locus YOR316C, strain cot1, hits give low values 0.759 [sensitive]

C=Cc1c(SC)sc(C(=O)O)c1C
inconclusive: locus YPL055C, strain LGE1, hits give low values 0.823 [sensitive]

Cc1cccc(Nc2ccncc2S(=O)(=O)NC(=O)NC(C)C)c1
inconclusive: locus YIL073C, strain SPO22, hits give low values 1.52 [resistant]

O=C1ON=C(c2ccccc2)/C1=C/c1ccc(Cl)cc1
inconclusive: [4] 0.573 [sensitive] | [7] 0.593 [sensitive]

COc1ccc2nc(S(=O)Cc3ncc(C)c(OC)c3C)[nH]c2c1 (stereo not given)
inconclusive: [8] 0.772 [sensitive]

CC(C)n1cc(C#N)c(=O)n(Cc2ccccc2)c1=O
inconclusive: locus YJR043C, strain POL32, hits give low values 0.908 [sensitive]

CCC(=O)Nc1ccc(Cl)c(Cl)c1
inconclusive: [9] 1.26 [resistant]

OCC(O)C(O)C(O)CO (stereo not given)
inconclusive: [10] 1.26 [resistant]

NC[C@H]1O[C@H](O[C@H]2[C@H](O)[C@@H](O[C@H]3O[C@H](CO)[C@@H](O)[C@H](N)[C@H]3O)[C@H](N)C[C@@H]2N)[C@H](N)[C@@H](O)[C@@H]1O
inconclusive: [11] 0.903 [sensitive]

Oc1cc(O)cc(/C=C/c2ccc(O)c(O)c2)c1
inconclusive: [12] 0.822 [sensitive] | locus YNL224C, strain SQS1, hits give low values 0.582 [sensitive]

CCOC(=O)CCc1cc(N=Cc2cc(Br)ccc2O)c(O)c(N=Cc2cc(Br)ccc2O)c1
active: locus YGR092W, strain DBF2, hits give low values 0.371 | [13] 0.562 | [8] 0.65 | [14] 0.579

OCC(S)CS (stereo not given)
inconclusive: locus YEL061C, strain CIN8, hits give low values 1.09 [resistant]

O=C(CCCN1CCC2(CC1)C(=O)NCN2c1ccccc1)c1ccc(F)cc1
inconclusive: [15] 0.834 [sensitive]

O=C(OCc1ccccc1Br)c1cc([N+](=O)[O-])cc([N+](=O)[O-])c1
inconclusive: [14] 0.848 [sensitive]

COc1ccc2c(c1)OC[C@@H](Cc1ccc(OC)c(OC)c1)[C@@H]2O
inconclusive: locus YOL012C, strain htz1 = 2.28 [resistant]

COc1ccccc1C1CCN(C(=O)c2ccc(F)cc2)CC1
inconclusive: locus YPL241C, strain CIN2, hits give low values 0.843 [sensitive]

Clc1ccc(-c2csc(Nc3ccccc3)n2)s1
inconclusive: locus YJL128C, strain PBS2, hits give low values 0.638 [sensitive]

O=C1OC(c2ccccc2)=C/C1=C/c1ccccc1
inconclusive: locus YKL067W, strain YNK1, hits give low values 0.651 [sensitive]

CC1=CC(=O)c2ccccc2C1=O
inconclusive: locus YOL012C, strain htz1 = 0.194 [sensitive]

CCCc1nc2c(C)cc(-c3nc4ccccc4n3C)cc2n1Cc1ccc(-c2ccccc2C(=O)O)cc1
inconclusive: [16] 1.3 [resistant]

O=C(O)/C=C/C=C/c1ccccc1
active: locus YAL021C, strain ccr4, hits give low values 0.827 | locus YAL026C, strain drs2, hits give low values 0.783 | locus YAL030W, strain snc1, hits give low values 0.826 | locus YBL061C, strain skt5, hits give low values 0.826 | locus YBR009C, strain hhf1, hits give low values 0.83 | locus YBR023C, strain chs3, hits give low values 0.811 | locus YBR171W, strain sec66, hits give low values 0.83 | locus YBR231C, strain swc5, hits give low values 0.804 | locus YBR279W, strain paf1, hits give low values 0.833 | [15] 0.814 | locus YCL016C, strain dcc1, hits give low values 0.836 | locus YCL069W, strain vba3, hits give low values 0.789 | locus YCR088W, strain abp1, hits give low values 0.764 | locus YDL005C, strain med2, hits give low values 0.875 | locus YDL040C, strain nat1, hits give low values 0.861 | locus YDL185W, strain tfp1, hits give low values 0.818 | [10] 0.793 | locus YDR069C, strain doa4, hits give low values 0.863 | locus YDR137W, strain rgp1, hits give low values 0.539 | locus YDR159W, strain sac3, hits give low values 0.596 | locus YDR297W, strain sur2, hits give low values 0.816 | [5] 0.91 | locus YDR334W, strain swr1, hits give low values 0.746 | locus YDR335W, strain msn5, hits give low values 0.766 | locus YDR392W, strain spt3, hits give low values 0.624 | locus YDR502C, strain sam2, hits give low values 0.914 | locus YEL003W, strain gim4, hits give low values 0.836 | locus YEL037C, strain rad23, hits give low values 0.816 | locus YEL061C, strain CIN8 (second series), hits give low values 0.763 | [9] 0.866 | locus YER016W, strain bim1, hits give low values 0.816 | locus YER110C, hits give low values 0.887 | locus YER111C, strain swi4, hits give low values 0.774 | locus YER155C, strain BEM2 (second series), hits give low values 0.636 | locus YER155C, strain BEM2, hits give low values 0.899 | locus YFR010W, strain ubp6, hits give low values 0.803 | locus YGL078C, strain dbp3, hits give low values 0.806 | [2] 0.927 | locus YGL167C, strain pmr1, hits give low values 0.837 | locus YGL173C, strain kem1, hits give low values 0.804 | locus YGL227W, strain vid30, hits give low values 0.761 | locus YGL240W, strain doc1, hits give low values 0.629 | locus YGL253W, strain hxk2, hits give low values 0.772 | locus YGR252W, strain gcn5, hits give low values 0.727 | locus YHR013C, strain ard1, hits give low values 0.767 | locus YHR027C, strain rpn1, hits give low values 0.87 | [13] 0.21 | locus YHR079C, strain IRE1, hits give low values 0.238 | [6] 0.917 | locus YHR142W, strain chs7, hits give low values 0.713 | locus YIL125W, strain kgd1, hits give low values 0.786 | locus YIR030C, strain dcg1, hits give low values 0.914 | locus YJL092W, strain hpr5, hits give low values 0.79 | locus YJL095W, strain BCK1 (second series), hits give low values 0.847 | locus YJL095W, strain BCK1, hits give low values 0.23 | locus YJL115W, strain asf1, hits give low values 0.762 | locus YJL129C, strain trk1, hits give low values 0.629 | locus YJL154C, strain vps35, hits give low values 0.808 | locus YJL164C, strain tpk1, hits give low values 0.8 | [1] 0.813 | locus YJL168C, strain set2, hits give low values 0.929 | locus YJL187C, strain SWE1, hits give low values 0.825 | locus YJR066W, strain TOR1, hits give low values 0.162 | [16] 0.784 | locus YKL068W, hits give low values 0.854 | locus YKL085W, strain MDH1 (second series), hits give low values 0.773 | locus YKL085W, strain MDH1, hits give low values 0.773 | locus YKL160W, strain elf1, hits give low values 0.831 | locus YKR001C, strain vps1, hits give low values 0.792 | locus YKR026C, strain gcn3, hits give low values 0.808 | locus YKR091W, strain srl3, hits give low values 0.83 | locus YLL001W, strain dnm1, hits give low values 0.782 | locus YLL026W, hits give low values 0.831 | locus YLL041C, strain sdh2, hits give low values 0.829 | locus YLR027C, strain aat2, hits give low values 0.827 | [8] 0.26 | locus YLR221C, strain rsa3, hits give low values 0.778 | locus YLR258W, strain gsy2, hits give low values 0.817 | locus YLR262C, strain YPT6 (second series), hits give low values 0.518 | locus YLR320W, strain mms22, hits give low values 0.771 | locus YLR342W, strain FKS1, hits give low values 0.812 | locus YLR357W, strain rsc2, hits give low values 0.732 | locus YLR370C, strain arc18, hits give low values 0.813 | locus YLR384C, strain iki3, hits give low values 0.827 | locus YML120C, strain ndi1, hits give low values 0.822 | locus YML124C, strain tub3, hits give low values 0.917 | locus YMR058W, strain fet3, hits give low values 0.793 | locus YMR078C, strain ctf18, hits give low values 0.9 | locus YMR125W, strain sto1, hits give low values 0.857 | locus YMR129W, hits give low values 0.824 | locus YMR205C, strain PFK2, hits give low values 0.826 | locus YMR231W, strain pep5, hits give low values 0.835 | locus YNL071W, strain lat1, hits give low values 0.775 | locus YNL183C, strain NPR1, hits give low values 0.168 | locus YNL209W, strain ssb2, hits give low values 0.863 | locus YNL248C, strain rpa49, hits give low values 0.832 | locus YNL250W, strain rad50, hits give low values 0.823 | locus YNL271C, strain bni1, hits give low values 0.772 | locus YNL298W, strain CLA4, hits give low values 0.692 | locus YNL322C, strain KRE1 (second series), hits give low values 0.746 | locus YNR049C, strain mso1, hits give low values 0.771 | locus YOL147C, strain pex11, hits give low values 0.927 | locus YOR001W, strain rrp6, hits give low values 0.794 | locus YOR070C, strain gyp1, hits give low values 0.831 | locus YOR080W, strain dia2, hits give low values 0.835 | locus YOR083W, strain WHI5, hits give low values 0.808 | locus YOR106W, strain vam3, hits give low values 0.793 | [11] 0.926 | locus YOR231W, strain MKK1, hits give low values 0.27 | locus YOR265W, strain rbl2, hits give low values 0.836 | locus YOR270C, strain vph1, hits give low values 0.687 | locus YOR290C, strain snf2, hits give low values 0.737 | [3] 0.83 | locus YPL078C, strain atp4, hits give low values 0.771 | locus YPL106C, strain sse1, hits give low values 0.821 | locus YPL240C, strain hsp82, hits give low values 0.806 | [14] 0.226 | locus YPR119W, strain clb2, hits give low values 0.922 | locus YPR141C, strain kar3, hits give low values 0.877 | locus YPR163C, strain tif3, hits give low values 0.908

C[N+](C)(C)CCC(=O)c1cccc2ccccc12
inconclusive: [12] 0.545 [sensitive]

CSc1sc(-c2ccn[nH]2)c(-c2ccccc2)c1C#N
inconclusive: locus YAL013W, strain DEP1, hits give low values 0.843 [sensitive]

COC1=C(OC)C(=O)c2ccccc2C1=O
inconclusive: locus YCL061C, strain MRC1 (second series), hits give low values 0.928 [sensitive]

NC(=S)N/N=C1/CCCc2ccccc21
inconclusive: locus YDL132W, strain cdc53, hits give low values 0.895 [sensitive] | locus YMR277W, strain FCP1, hits give low values 0.826 [sensitive]

O=C1CC(c2ccccc2)=NO1
inconclusive: [4] 0.627 [sensitive] | [7] 0.919 [sensitive]
